Measurements reported in PubChem BioAssay AID485294 (National Center for Advancing Translational Sciences (NCATS), 2010).
The campaign covered roughly 370,000 compounds. About 150 (0.041%) were called active. The inconclusive results got no clear call from the source; some entries with a clear call stand among them for comparison. Calls follow the shape of the dose curve; as a rule, active = well fitted inhibition curve with a large enough effect; inconclusive = small, poorly fitted or top-dose-only effect; inactive = flat fitted curve, though single readings scatter. Potencies of inconclusive entries are left out as doubtful fits.

target: Beta-lactamase (Escherichia coli (strain K12)) (UniProt P00811); assay: qHTS Inhibitors of AmpC Beta-Lactamase (assay with detergent); conditions: AmpC hydrolysis of nitrocefin, absorbance 480 nm, 0.01% Triton; series mostly up to 114 µM; also: nearly all actives have a fitted effect of over 25% in size
In short: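 AmpC (5.3 nM in the dispensed reagent) in 20 mM phosphate pH 7.0 with 0.01% (detergent screen) or 0.0001% Triton X-100 was preincubated with compounds for 15 min at room temperature. Nitrocefin was then added from an 800 uM solution, and hydrolysis was followed at 480 nm.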
Potency is read from the fitted curve at half-maximal effect; tags tell the direction and shape of the fitted curve.

Sequence of UniProt P00811 (P00811 whole entry, looked up): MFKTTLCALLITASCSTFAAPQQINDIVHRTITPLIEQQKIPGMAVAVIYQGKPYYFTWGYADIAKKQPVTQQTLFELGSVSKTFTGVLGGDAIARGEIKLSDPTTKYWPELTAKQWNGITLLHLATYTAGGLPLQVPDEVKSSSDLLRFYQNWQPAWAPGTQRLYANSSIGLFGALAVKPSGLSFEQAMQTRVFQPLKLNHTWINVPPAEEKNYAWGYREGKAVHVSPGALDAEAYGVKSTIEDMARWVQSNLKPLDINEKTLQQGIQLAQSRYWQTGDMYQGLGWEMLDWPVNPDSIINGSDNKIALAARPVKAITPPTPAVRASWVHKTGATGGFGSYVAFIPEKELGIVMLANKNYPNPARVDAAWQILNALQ

SMILES	Potency
O=S(=O)(Nc1ncccn1)c1cc(Cl)ccc1Cl	inconclusive [inhibitor, full curve, poor fit]
Cc1cccc([C@@H]2[C@@H]3C(=O)N(Cc4ccccc4)C(=O)[C@@H]3[C@]3(C)C(=O)N(c4ccc(Br)cc4)C(=O)N23)c1	inconclusive [inhibitor, full curve, poor fit]
Cc1ccc2c(cnn2C(=O)CCCC(=O)NCc2cccc(F)c2)c1	inactive
COc1cccc(-c2nc(CS(=O)CC(=O)NCc3ccc4c(c3)OCO4)c(C)o2)c1 (centres undefined)	inconclusive [inhibitor, full curve, poor fit]
CCCC(C)C1(CC)C(=O)NC(=Nc2ccc(F)cc2)NC1=O (centres undefined)	inconclusive [inhibitor, single point]
COc1ccccc1CNC(=O)C1CCN(S(=O)(=O)c2cccc([N+](=O)[O-])c2)CC1	inactive
COc1cccc(CN(C)CC(=O)Nc2cccc(S(N)(=O)=O)c2)c1OC	inactive
COc1ccccc1N1CCN(CCCNC(=O)Cn2ncc3c([nH]c4ccccc43)c2=O)CC1	inactive
C=CCn1c(SCc2c(C)noc2C)nnc1C1COc2ccccc2O1 (centres undefined)	inconclusive [inhibitor, full curve, poor fit]
CCN(CC)S(=O)(=O)c1cccc(C(=O)NC(C(=O)NC2=NCCS2)C(C)C)c1 (centres undefined)	inconclusive [inhibitor, partial curve]
CC(=O)/C(C(=N)N1CCN(Cc2ccccc2)CC1)=C(\C)O	inconclusive [inhibitor, partial curve, poor fit]
Clc1ccc2c(N3CCOCC3)ccnc2c1	inactive
CCCOc1ccc(/C=C/C(=O)NC2CCCCC2)cc1OC	inconclusive [inhibitor, full curve, poor fit]
CCOc1ccc(-c2nc(C#N)c(NC3CC3)o2)cc1	inactive
CN(Cc1ccco1)c1ncnc2ccc(-c3cccnc3)cc12	inconclusive [inhibitor, single point]
Cc1cccc(COCC(Cc2ccccc2)N2CCN(C(=O)c3cc(Cl)cc(Cl)c3)CCC2=O)c1 (centres undefined)	inactive
CCCCCc1nnc(NC(=O)c2cccc(S(=O)(=O)N3CCOCC3)c2)s1	inactive
CCOc1c(Cl)cc(CNCc2ccccn2)cc1OC	inconclusive [inhibitor, partial curve]
Cc1cccc(N2CCN(C(=O)c3csc4ccccc34)CC2C)c1 (centres undefined)	inconclusive [inhibitor, full curve]
COC(=O)NNC(=O)Cc1cccc2ccccc12	inconclusive [inhibitor, full curve, poor fit]
O=C(N/N=C(\c1ccccc1)c1ccccn1)c1ccccc1Cl	inactive
Cc1ccc(S(=O)(=O)/N=C(\c2ccc(Cl)cc2)N2CCOCC2)cc1	inconclusive [inhibitor, full curve]
COc1ccc(C(=S)N2CCN(S(=O)(=O)c3ccccc3)CC2)cc1	inactive

SMILES	Potency
O=C(CC1CCCCC1)NCc1ccc(Cl)cc1	inconclusive [inhibitor, full curve, poor fit]
Cn1c(SCC(=O)Nc2ccc(Cl)cn2)nnc1C1CC1	inconclusive [inhibitor, partial curve]
COC(=O)c1ccn(-c2nc(-c3ccc(Cl)cc3)cc(C(F)(F)F)n2)n1	inactive
CCCCOc1ccc(N=Cc2cccs2)cc1	inactive
CC1=C(C(=O)OC(C)C)C(c2ccccn2)n2ncnc2N1 (centres undefined)	inconclusive [inhibitor, full curve, poor fit]
O=C(NCc1cccnc1)C1c2ccccc2C(=O)N1C1CCCC1 (centres undefined)	inconclusive [inhibitor, full curve]
O=C1CC(=O)N(c2ccc(Cl)cc2)C(=O)N1	inconclusive [inhibitor, partial curve, poor fit]
CCn1ncc(NC(=S)Nc2ccc(OC)c(OC)c2)c1C(N)=O	inactive
Nc1cc(=O)[nH]c(SCc2cccc(Cl)c2)n1	inconclusive [inhibitor, full curve, poor fit]
O=C(NC(=S)Nc1cc(Cl)ccc1O)c1cccc(Br)c1	inactive
CCOC(=O)C[N+](CC)(CC)CC#Cc1ccccc1	inconclusive [inhibitor, full curve, poor fit]
CCOc1ccc(/C(O)=C2/C(=O)C(=O)N(CCN(CC)CC)C2c2cccs2)cc1 (centres undefined)	inconclusive [inhibitor, full curve]
CCOC(=O)C1CCN(C(=O)c2cccc(S(=O)(=O)N3c4ccccc4CC3C)c2)CC1 (centres undefined)	inconclusive [inhibitor, partial curve, poor fit]
COc1cccc(/C(O)=C2/C(=O)C(=O)N(CCN(C)C)C2c2ccccn2)c1 (centres undefined)	inactive
COc1ccc(C(c2nnnn2CC2CCCO2)N2CCN(c3ccc(F)cc3)CC2)cc1 (centres undefined)	inconclusive [inhibitor, single point]
CCOc1cc(/C=C2\SC(=S)N(N3CCOCC3)C2=O)ccc1O	inconclusive [inhibitor, full curve, poor fit]
CC(=O)c1sc(NC(=O)c2ccc(Br)o2)nc1C	inactive
CCC(Oc1ccccc1)C(=O)Nc1nnc(C)s1 (centres undefined)	inconclusive [inhibitor, single point]
CCC(C(=O)N1C[C@H]2C[C@@H](C1)c1cccc(=O)n1C2)c1ccccc1 (some centres undefined)	inconclusive [inhibitor, partial curve]
COc1ccc(NC(=O)CSc2nc3ccccc3c(=O)n2C)cc1	inconclusive [inhibitor, partial curve]
NC(=O)c1cccnc1Nc1cccc(F)c1	inconclusive [inhibitor, partial curve]
CCn1c2ccccc2c2cc(NC(=O)CCCN3C(=O)CCC3=O)ccc21	inconclusive [inhibitor, partial curve]
CC(=O)NCCc1nc2cc(NC(=O)c3ccc(Cl)cc3)ccc2n1C	inactive

SMILES	Potency
Cn1c(=O)[nH]c(=O)c2c1nc(N1CCc3ccccc3C1)n2CCSc1nc2ccccc2s1	inconclusive [inhibitor, partial curve]
CC(C)(C)C(=O)Nc1nc2nc(-c3ccccc3)cc(=O)n2[nH]1	inactive
COc1ccc(C)cc1NC(=O)CCN1CCN(c2ccccc2F)CC1	inconclusive [inhibitor, full curve, poor fit]
CCCCNC(=O)c1c(N)n(Cc2ccc3c(c2)OCO3)c2nc3ccccc3nc12	inconclusive [inhibitor, full curve, poor fit]
O=C(COC(=O)c1ccc(Cl)cc1[N+](=O)[O-])NC(=O)c1ccccc1	inconclusive [inhibitor, single point]
Fc1ccc(-n2nnc(-c3cnc4ccccc4c3)n2)cc1	inactive
O=C(/C=C/c1ccccc1)Nc1ccc2c(c1)C(=O)NC2=O	inactive
CCCC(C)C(=O)Nc1ccc(Cl)cc1Cl (centres undefined)	inconclusive [inhibitor, full curve, poor fit]
Cc1ccc(OCC(=O)NNC(=O)C2CCN(c3ncccn3)CC2)cc1	inconclusive [inhibitor, full curve, poor fit]
CCOC(=O)CCC(=O)O[C@H]1[C@H](O[C@@H]2[C@@H](C)[C@H](O[C@H]3C[C@@](C)(OC)[C@@H](O)[C@H](C)O3)[C@@H](C)C(=O)O[C@H](CC)[C@@](C)(O)[C@H](O)[C@@H](C)C(=O)[C@H](C)C[C@@]2(C)O)O[C@H](C)C[C@@H]1N(C)C	inconclusive [inhibitor, full curve]
COC(=O)c1cc(Cl)c(NC(=O)c2ccc(F)cc2)cc1OC	inactive
Cc1cccc(CNc2ccc(C(CC(N)=O)NC(=O)c3ccccc3)cc2[N+](=O)[O-])c1 (centres undefined)	inactive
CCCn1c(SCC(=O)c2ccc3c(c2)OCCO3)nnc1C(C)C	inconclusive [inhibitor, partial curve, poor fit]
CNC(=O)C(=O)N1CCC2(CC1)OCCN2S(=O)(=O)c1ccc(C)cc1	inconclusive [inhibitor, full curve, poor fit]
CN1/C(=C\C=C(/C#N)C(=O)Nc2ccccc2F)C(C)(C)c2ccccc21	inconclusive [inhibitor, partial curve]
CC(=O)c1ccc(NS(=O)(=O)c2cccc(C(=O)Nc3ccccc3C(=O)O)c2)cc1	inactive
Clc1cnc2nc(SC/C=C/c3ccccc3)[nH]c2c1	inactive
COc1ccccc1NC(=O)N(Cc1cc2cc(OC)c(OC)cc2[nH]c1=O)CC1CCCO1 (centres undefined)	inconclusive [inhibitor, full curve]
O=C(CN(C1CCCCC1)S(=O)(=O)c1ccc(Br)cc1)NCc1ccncc1	inconclusive [inhibitor, single point]
CC(C)C(OC(=O)c1cccs1)C(=O)NCCc1ccccc1 (centres undefined)	inconclusive [inhibitor, partial curve]
C=C(C)C1CC=C(C)/C(=N/NC(=O)c2ccc(NC(=O)CCC)cc2)C1 (centres undefined)	inconclusive [inhibitor, full curve]
Cc1ccc(NC(=O)Cn2nnc3ccccc3c2=O)cc1	inactive
CN(Cc1ccccc1)c1nc2c(c(=O)[nH]c(=O)n2C)n1Cc1ccccc1	inconclusive [inhibitor, single point]
